# In PubChem BioAssay AID1479 (National Center for Advancing Translational Sciences (NCATS), 2009):
# In all, about 280,000 compounds went through this assay and about 820 (0.29%) were called active. The shares of active, inactive and inconclusive entries below differ from those in the screen. The call rests on the fitted dose curve; in most records, active means well fitted curve in either direction with a large enough effect; inconclusive means small, poorly fitted or top-dose-only effect; inactive means flat fitted curve, though single readings scatter. Potencies of inconclusive entries are left out as doubtful fits.
# Assay: Total Fluorescence Counterscreen for Inhibitors of the Interaction of Thyroid Hormone Receptor and Steroid Receptor Coregulator 2
# Conditions: TRb/SRC2 Texas Red total fluorescence interference; series mostly up to 106 µM; fluorescence change, negative = quenching: at the top concentration
# Summary of the method: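 Flags fluorescent or light-absorbing compounds by total fluorescence, S + 2P, at 555 nm excitation and 632 nm emission. Mixture: 20 nM Texas Red SRC2 peptide, 0.6 uM human TRb LBD, 1 uM T3, 5% DMSO; compound exposure 5 h at ambient temperature.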
# On the % scale 0 is the no-effect control and ±100 the full control effect; potency means the concentration at half of the fitted maximal effect; tags describe the fitted curve by direction and shape or compound fluorescence and quenching.
Compound,"fluorescence change, negative = quenching",Potency
CCOc1ccc(NC(=O)CN2CCN(Cc3ccccc3)S2(=O)=O)cc1,inactive: -1.43%,–
C=CCOC(=O)C(C(C)=O)C(NC(=O)OC)c1cccc(F)c1 (centres undefined),–,"inconclusive [falling, partial curve, poor fit]"
CCc1nn2c(-c3ccccc3OC)ccnc2c1-c1ccc(F)cc1,–,active: 8.91 µM [quencher]
CCOC(=O)C1=C(C)OC(N)=C(C#N)C1c1cc2c(cc1[N+](=O)[O-])OCO2 (centres undefined),inactive: -3.14%,–
CCOc1ccccc1NC(=O)Cc1coc2c(C)c(C)ccc12,–,active: 35.5 µM [quencher]
CCOC(=O)CSc1nnc2cc(C)c3ccccc3n12,inactive: 1.6%,–
C=CCON1C(=O)c2ccccc2C1=O,inactive: -0.765%,–
CC(=O)c1sc2nc(-c3ccco3)ccc2c1N,–,"inconclusive [quencher, partial curve]"
O=C(COc1ccc2ccccc2c1)NNC(=O)c1ccc([N+](=O)[O-])cc1,–,"inconclusive [quencher, partial curve]"
COc1cc(/C=C2/CC/C(=C/c3ccc(O)c(OC)c3)C2=O)ccc1O,–,"inconclusive [falling, partial curve, poor fit]"
CC12CCC=CC1C(c1ccc(Br)cc1F)N(Cc1ccccc1)C2=O (centres undefined),–,"inconclusive [fluorescent, partial curve]"
CCOc1ccc(-n2cc(C(=O)Nc3ccccc3OCC)c3cc(OC)c(OC)cc3c2=O)cc1,inactive: -2.14%,–
Cc1ccc(C(=O)c2coc3cc([N+](=O)[O-])c(O)c([N+](=O)[O-])c23)cc1,–,"inconclusive [falling, full curve, poor fit]"
O=[N+]([O-])c1ccc(N=NNc2ccccc2)cc1,inactive: -0.427%,–
CCCCCCCCCCCCC/C=C/[C@@H](O)[C@H](CO)NC(=O)CCCCC,–,"inconclusive [quencher, partial curve]"
O=C(COc1ccc(Cl)cc1)Nc1sc2c(c1C(=O)Nc1cccc(Cl)c1)CCCC2,inactive: 5.75%,–
COc1cc(OC)cc(C(=O)Nc2ccc3nc(Nc4cccc(C(F)(F)F)c4)cc(C)c3c2)c1,inactive: -12.6%,–
O=C(O)c1cc(O)c2ccccc2c1O,–,"inconclusive [quencher, partial curve]"
Cc1ccc(Cl)cc1NC(c1ccc(F)cc1)c1nnc(-c2ccccc2)o1 (centres undefined),–,"inconclusive [falling, full curve, poor fit]"
CCCCOC(=O)CSc1nnc(-c2ccc(C)cc2)o1,–,inconclusive
CCCCCCCCNC(=O)c1cnsn1,inactive: -2.38%,–
CCOC(=O)Cn1c(=O)n(CC2CCCO2)c2nc(-c3ccc(C(C)C)cc3)nc(C(N)=O)c21 (centres undefined),–,"inconclusive [quencher, full curve]"
COc1ccc2c(C)c(CCC(=O)NCc3ccc(Cl)cc3)c(=O)oc2c1C,–,"inconclusive [falling, full curve, poor fit]"

Compound,"fluorescence change, negative = quenching",Potency
O=C(NN1C(=O)/C(=C/C=C/c2ccco2)SC1=S)c1ccccc1O,–,"inconclusive [quencher, partial curve]"
O=C(N/N=C/c1ccc(F)cc1)c1cc(-c2ccco2)nc2ccccc12,–,active: 31.6 µM [quencher]
CCOC(=O)c1c(S(=O)(=O)N2CCCC(C(=O)NCc3cccc(OC)c3)C2)c(C)n(C)c1C (centres undefined),–,"inconclusive [falling, full curve, poor fit]"
COC(=O)C1=C(C)N(Cc2ccccc2)[C@]23O[C@](C(=O)OC)(C(=O)N2C1c1ccccc1)C1CCCC(=O)C13 (some centres undefined),–,"inconclusive [quencher, full curve]"
CCOC(=O)c1scc(-c2ccc(C)cc2)c1S(=O)(=O)N1CCN(c2ccccc2F)CC1,–,"inconclusive [falling, partial curve, poor fit]"
CCOC(=O)c1cnc2c(C)c(Cl)ccc2c1NCCc1ccccc1,–,"inconclusive [quencher, full curve]"
CCOC(=O)c1cc(-c2ccccc2)n(-c2cccc(C(=O)Nc3ccc(OC)cc3)c2)c1C,–,"inconclusive [quencher, partial curve]"
O=C(N/N=C/c1ccccc1O)C1(O)c2ccccc2-c2ccccc21,–,"inconclusive [falling, partial curve, poor fit]"
O=c1ccc2[n+]([O-])c3ccc(O)cc3oc-2c1,–,active: 1.58 µM [fluorescent]
O=[N+]([O-])c1ccc(N/N=C\c2cccn2-c2ccccc2)nc1,inactive: -2.16%,–
O=C(Nc1nc(-c2ccccc2)cs1)c1ccccc1NS(=O)(=O)c1ccc(F)cc1,–,"inconclusive [quencher, partial curve]"
COc1ccc(N)c2c1C(=O)c1ccccc1C2=O,–,active: 50.1 µM [fluorescent]
Cc1cccn2c(=O)c(C(=O)NCCCN3CCCCC3C)c(O)nc12 (centres undefined),–,active: 17.8 µM [quencher]
COc1cc(OC)c(NC(=O)C2CCCN(c3ncnc4c3nc3n4CCCCC3)C2)cc1Cl (centres undefined),–,active: 17.8 µM [quencher]
O=C(COc1ccccc1Cl)NCC1(N2CCOCC2)CCCCC1,–,"inconclusive [falling, full curve, poor fit]"
CCCCOc1ccc(C(=O)N2CCN(CCc3ccncc3)CC2)cc1,–,active: 6.31 µM [quencher]
COc1cccc(-c2cc(C(=O)Nc3cc(Cl)ccc3O)on2)c1,–,"inconclusive [falling, full curve, poor fit]"
NCCNc1ccc([N+](=O)[O-])c(Sc2nc3ccccc3[nH]2)c1,inactive: -2.02%,–
O=C(Nc1ccc(O)c2c(=O)cc(-c3ccccc3Cl)oc12)c1ccc(Br)cc1,inactive: -4.11%,–
COc1ccc(C(=O)C2C3C4COC(O4)C(=O)C3C3C=Cc4ccccc4N32)c(OC)c1 (centres undefined),–,active: 22.4 µM [fluorescent]
O=C(Oc1ccc([N+](=O)[O-])cc1)c1ccc(Cl)c(S(=O)(=O)N2CCCCC2)c1,–,active: 0.316 µM [quencher]
Brc1ccc(Nc2nc(-c3cccnc3)cs2)cc1,inactive: -2.46%,–
CC(C)=CCC/C(C)=C/C=N/NC(=O)c1ccc([N+](=O)[O-])cc1,–,"inconclusive [falling, full curve, poor fit]"

Compound,"fluorescence change, negative = quenching",Potency
CCOc1ccccc1CNC(=O)C1CCN(c2nn3cc(-c4ccc(F)cc4)nc3s2)CC1,–,"inconclusive [quencher, partial curve]"
N=C1/C(=C\c2coc3ccccc3c2=O)C(=O)N=C2SC(c3ccncc3)=NN12,–,"inconclusive [quencher, partial curve]"
NC(=O)SCC(=O)Nc1ccc(Cl)cc1,inactive: 0.126%,–
Cc1cccc(N2CSC3=C(C#N)C(c4ccc(C)o4)CC(=O)N3C2)c1 (centres undefined),–,"inconclusive [quencher, full curve]"
Cc1cccc(NC(=O)CCCCCn2c(=O)[nH]c3ccsc3c2=O)c1,inactive: -13.8%,–
CCOC(=O)C1CCN(C(=O)Cn2c(=O)oc3cc(S(=O)(=O)N4CCC(C)CC4)ccc32)CC1,inactive: -1.72%,–
Cc1cc2c(cc1S(=O)(=O)N1CCCCC1)OCC(=O)N2,–,"inconclusive [falling, partial curve, poor fit]"
O=C(CCS(=O)(=O)c1cccs1)Nc1ccc(C(=O)Nc2ccccc2F)cc1,–,"inconclusive [falling, partial curve, poor fit]"
COc1ccc(C(=O)n2nc(-c3ccco3)nc2NCc2cccs2)cc1OC,–,"inconclusive [falling, full curve, poor fit]"
CCOc1ccc2[nH]c(=O)c(CN(Cc3nnnn3Cc3ccco3)C3CCCCC3)cc2c1,–,"inconclusive [quencher, partial curve]"
CCN(CC)c1cc2c(cc1F)c(=O)c(S(=O)(=O)c1ccc(OC)cc1)cn2CC,–,active: 50.1 µM [quencher]
O=C(O)c1ccc(C[n+]2c(-c3ccccc3)csc2Nc2ccccc2)cc1,–,"inconclusive [falling, partial curve, poor fit]"
Cc1ccc(NC(=O)CSc2nnc(-c3ccco3)c(-c3ccco3)n2)cc1,–,"inconclusive [quencher, partial curve]"
Cc1ccc(S(=O)(=O)N(CC(=O)Nc2ccc(C(C)C)cc2)Cc2ccccc2)cc1,–,"inconclusive [falling, partial curve, poor fit]"
CCOc1ccc(CCNC(=O)C2CCN(c3ncnc4c3nc3n4CCCCC3)CC2)cc1,–,active: 22.4 µM [quencher]
O=C(Nc1sc2c(c1C(=O)Nc1ccccc1Cl)CCCC2)c1ccccc1F,inactive: -2.52%,–
O=C(NCc1ccccc1Br)C1CCCN(C(=O)N2CCOc3ccccc32)C1 (centres undefined),–,"inconclusive [falling, full curve, poor fit]"
CCOc1ccc(NC(=O)CCC(=O)NNC(=O)COc2ccccc2C)cc1,–,"inconclusive [rising, single point]"
COc1ccc2c(c1)S(=O)(=O)c1ccccc1N2,inactive: 1.29%,–
COc1ccccc1CNS(=O)(=O)c1ccc2[nH]c3c(c2c1)CCCCC3,–,"inconclusive [falling, full curve, poor fit]"
COc1cccc(-c2cn3c(n2)sc2cc(C(=O)NC4CCCCCC4)ccc23)c1,–,"inconclusive [falling, full curve, poor fit]"
COc1ccc(Br)cc1CNC(=O)Cn1c(=O)c2cccn2c2ccc(F)cc21,inactive: -23.2%,–
Cc1c(N=C(N)/N=C(\N)Nc2ccccc2)c(=O)n(-c2ccccc2)n1C,–,"inconclusive [quencher, full curve]"
